# Measured values from PubChem BioAssay (Tox21).
# “And” between values parts separate entries of the source, which are not always exact repeats. Equal entries are not always repeated. Inconclusive means that the source gave no clear call. Such entries were picked first, then a sample of the others. For some assays here: Potencies beside an inconclusive call are fits to weak or partial responses and may not hold up. Some compounds were tested as several samples or in several runs, with calls that do not always agree. The source made the active and inactive calls. Unless noted, the call rests on the fitted dose curve; in most records, active means well fitted curve in the direction sought with a large enough effect in the repeat runs; inconclusive means weak or mixed curves; inactive means no such curve, though single readings can be large; an effect the other way counts as inactive or inconclusive.
# Key:
# [1] = qHTS assay to identify small molecule antagonists of the retinoid-related orphan receptor gamma (ROR-gamma) signaling pathway - cell viability counter screen (AID 1159520); further: nearly all actives have a fitted effect of over 50% in size
# Summary of the method: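 Tet-on ROR gamma CHO cells (1,000/well) were plated 4 hr, given compounds in DMSO for 2 hr at 37 C, then induced with 1 uM final doxycycline for 16 hr. Viability was read as ATP by CellTiter-Glo luminescence after 30 min.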
# [2] = molecular target: Nuclear receptor ROR-gamma (Homo sapiens) (UniProt P51449); assay: qHTS assay to identify small molecule antagonists of the retinoid-related orphan receptor gamma (ROR-gamma) signaling pathway (AID 1159521; further: nearly all actives have a fitted effect of over 50% in size)
# Summary of the method: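 Screening format: cell-based luciferase reporter in CHO cells with doxycycline-inducible RORγ. Compound pre-exposure lasts 2 h, doxycycline is 1 uM final, induction runs 16 h at 37 C, and ONE-Glo luminescence is read.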
# [3] = molecular target: Retinoic acid receptor RXR-alpha (Homo sapiens) (UniProt P19793); assay: qHTS assay to identify small molecule agonists of the RXR signaling pathway (AID 1159527; calls by dose curve; further: nearly all actives have a fitted effect of over 35% in size; on activation: on the % scale 0 is the no-effect control and ±100 the full control effect); conditions: HEK293T RXRa-UAS-bla, beta-lactamase ratio, 16 h; activation: at 76.8 µM (top of the series) unless noted
# Chain of UniProt P19793 (P19793 whole entry, looked up): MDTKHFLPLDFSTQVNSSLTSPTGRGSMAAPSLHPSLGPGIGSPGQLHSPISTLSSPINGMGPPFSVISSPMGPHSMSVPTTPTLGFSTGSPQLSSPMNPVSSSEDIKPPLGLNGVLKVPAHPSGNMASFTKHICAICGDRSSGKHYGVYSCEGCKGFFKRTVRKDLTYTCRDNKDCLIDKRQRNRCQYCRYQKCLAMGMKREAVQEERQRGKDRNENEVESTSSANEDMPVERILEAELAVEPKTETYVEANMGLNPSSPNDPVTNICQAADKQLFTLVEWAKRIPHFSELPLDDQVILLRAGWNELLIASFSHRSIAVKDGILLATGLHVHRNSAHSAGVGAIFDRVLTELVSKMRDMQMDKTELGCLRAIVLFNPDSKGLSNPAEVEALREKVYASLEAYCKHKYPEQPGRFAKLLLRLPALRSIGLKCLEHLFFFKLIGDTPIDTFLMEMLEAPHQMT
# Summary of the method: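 Fluorescence ratio readout (460 vs 530 nm) from GeneBLAzer RXR-alpha HEK 293T cells after 16 hr compound treatment; cells seeded 5 hr beforehand in low-serum, charcoal-stripped medium.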
# [4] = qHTS assay to identify small molecule agonists of the RXR signaling pathway - cell viability counter screen (AID 1159529); further: nearly all actives have a fitted effect of over 50% in size
# Summary of the method: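 Viability read-out for the RXR-alpha agonist qHTS: luminescent CellTiter-Glo signal after 30 min at RT. HEK 293T bla reporter cells, 2% charcoal-stripped FBS, 16 hr compound incubation; tetraoctyl ammonium bromide as cytotoxic control.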
# [5] = qHTS assay to identify small molecule antagonists of the estrogen related receptor (ERR) signaling pathway from Tox21 library - cell viability counter screen (AID 1224834); further: nearly all actives have a fitted effect of over 30% in size
# Summary of the method: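 Viability readout (CellTiter-Fluor fluorescence, 30 min at 37 C) multiplexed with the ERR assay; cells treated 17.5 h at 37 C with compounds delivered in DMSO.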
# [6] = qHTS assay to identify small molecule agonists of the AP-1 signaling pathway - cell viability counter screen (AID 1159525; calls by dose curve; further: nearly all actives have a fitted effect of over 55% in size)
# Summary of the method: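 ME-180 AP-1-bla, 2500 cells/well, Opti-MEM + 0.5% dialyzed FBS; overnight 37 °C; cpd 15-pt titration, 5 h 37 °C; CellTiter-Glo 30 min RT; luminescence read; normalised to TOAB and DMSO controls.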
# [7] = qHTS assay to identify small molecule agonists of the AP-1 signaling pathway (AID 1159526; calls by dose curve; on activation: on the % scale 0 is the no-effect control and ±100 the full control effect); conditions: ME-180 (cervical carcinoma) AP-1-bla reporter, beta-lactamase FRET ratio, 5 h
# [8] = qHTS assay to identify small molecule antagonists of the retinoid acid receptor (RAR) signaling pathway - cell viability counter screen (AID 1159551); further: nearly all actives have a fitted effect of over 35% in size
# Summary of the method: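 Following overnight attachment, C3RL4 reporter cells received DMSO-dissolved compounds and then retinol (1 uM final). Six hours later at 37 C, ATP content was measured by CellTiter-Glo luminescence.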
# [9] = qHTS assay to identify small molecule antagonists of the estrogen related receptor (ERR) signaling pathway - cell viability counter screen (AID 1224818);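 further: viability measured after 17.5 h of compound exposure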
# Summary of the method: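 Here, ERR cells are plated at 2,000 cells per well, allowed 6 h to attach, and treated with compounds in DMSO for 17.5 h at 37 C. CellTiter-Fluor is then added and fluorescence read after 30 min.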
# [10] = qHTS assay to identify small molecule antagonists of the estrogen related receptor signaling pathway with the pleiotropic PPARgamma coactivator (PGC) cell viability counter screen (AID 1224822;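 further: viability read after 17.5 h compound exposure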)
# Summary of the method: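 qHTS format, DMSO compound stocks pin-transferred onto PGC/ERR cells 6 h after plating; 17.5 h exposure at 37 C, then CellTiter-Fluor fluorescence.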
# [11] = qHTS assay to identify small molecule agonists of the constitutive androstane receptor (CAR) signaling pathway - cell viability counter screen (AID 1224836); further: nearly all actives have a fitted effect of over 45% in size
# Summary of the method: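 Multiplexed viability check: HepG2-CYP2B6-hCAR cells, 15-point compound dosing, 0.75 uM PK11195 final, 23 h at 37 C, CellTiter-Fluor fluorescence.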
# [12] = qHTS assay to identify small molecule agonists of the retinoic acid receptor (RAR) signaling pathway (AID 1159553); conditions: C3RL4 RARE luciferase reporter, agonist, 6 h; activation: at 73.3 µM (top of the series) unless noted; on activation: on the % scale 0 is the no-effect control and ±100 the full control effect
# Summary of the method: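 Cell line C3RL4, RARE luciferase reporter. Treatment: compounds in DMSO, 6 hr, 37 C, 5% CO2, after overnight plating. Detection: luminescence, 30 min RT after reagent.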
# [13] = molecular target: Luciferin 4-monooxygenase (Photinus pyralis) (UniProt P08659); assay: qHTS assay to identify small molecule inhibitors of firefly luciferase (AID 1224835); further: nearly all actives have a fitted effect of over 25% in size
# Chain of UniProt P08659 (P08659 whole entry, looked up): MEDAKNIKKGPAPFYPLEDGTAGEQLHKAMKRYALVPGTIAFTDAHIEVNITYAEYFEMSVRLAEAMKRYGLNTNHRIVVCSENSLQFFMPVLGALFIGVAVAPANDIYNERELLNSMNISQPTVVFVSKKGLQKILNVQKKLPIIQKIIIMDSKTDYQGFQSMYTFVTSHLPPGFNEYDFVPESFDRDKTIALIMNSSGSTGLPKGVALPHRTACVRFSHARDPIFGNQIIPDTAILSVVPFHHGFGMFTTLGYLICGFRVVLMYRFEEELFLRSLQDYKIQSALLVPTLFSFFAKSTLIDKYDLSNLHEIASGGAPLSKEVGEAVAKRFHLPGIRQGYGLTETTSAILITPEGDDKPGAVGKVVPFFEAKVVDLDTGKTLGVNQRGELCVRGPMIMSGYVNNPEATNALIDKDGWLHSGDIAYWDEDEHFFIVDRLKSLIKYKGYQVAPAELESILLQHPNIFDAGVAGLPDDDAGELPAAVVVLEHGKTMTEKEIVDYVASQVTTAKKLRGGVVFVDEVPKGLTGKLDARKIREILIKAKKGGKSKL
# Summary of the method: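 Quantitative HTS format; KM concentrations of both substrates. Purified P. pyralis FLuc activity quantified from luminescence images.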
# [14] = qHTS assay to identify small molecule antagonists of the retinoic acid receptor (RAR) signaling pathway (AID 1159552; further: nearly all actives have a fitted effect of over 50% in size)
# Summary of the method: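 Using a RARE-driven luciferase construct in C3RL4 cells, retinol at 1 uM final provided the agonist stimulus while compounds were co-applied. After 6 hours at 37 C, luminescence was recorded to flag inhibitors of retinol signaling.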
# [15] = qHTS assay to identify small molecule antagonists of the constitutive androstane receptor (CAR) signaling pathway - cell viability counter screen (AID 1224837); further: nearly all actives have a fitted effect of over 45% in size
# Summary of the method: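 Fluorescence from CellTiter-Fluor served as the viability signal. Human hepatoma HepG2 cells stably bearing hCAR and CYP2B6-2.2kb received compound plus CITCO (50 nM final) for 23 hr.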
# [16] = activation: at 76.8 µM (top of the series) unless noted
# Potency means the concentration at half of the fitted maximal effect; tags describe the fitted curve by direction and shape or compound fluorescence and quenching.
smiles,measurement,setting,value
COc1ccc(/C(=C/C(=O)N2CCOCC2)c2ccc(Cl)cc2)cc1OC,Potency,[1],inactive
same,Potency,[2],inactive
same,activation,[3],inconclusive: 3.27%
same,Potency,[4],"inconclusive: 49 µM [cytotoxic, partial curve, poor fit]"
same,Potency,[5],"inconclusive: 68.6 µM [cytotoxic, partial curve, poor fit]"
CC(C)(C)CC(C)(C)c1ccc(O)cc1,Potency,[1],"active: 27.3 µM and inconclusive: 29.8 µM [cytotoxic, partial curve]"
same,Potency,[6],"active: 17.4 µM and inconclusive: 26.8 µM [cytotoxic, single point]"
same,Potency,[7]; [16],inconclusive: 15.5 µM [cytotoxic] and inconclusive: 23.9 µM [partial curve]
same,Potency,[3],"inconclusive: 19.5 µM [cytotoxic] and inconclusive: 21.3 µM [cytotoxic, partial curve]"
same,Potency,[4],active: 17.4 µM and active: 23.9 µM
same,Potency,[8],"active: 43.3 µM and inconclusive: 21.1 µM [cytotoxic, partial curve]"
same,Potency,[9],inconclusive: 61.1 µM [cytotoxic]
same,Potency,[10],inconclusive: 33.1 µM [cytotoxic]
same,Potency,[11],inconclusive: 68.6 µM [cytotoxic]
c1ccc(NNc2ccccc2)cc1,Potency,[1],"inconclusive: 54.5 µM [cytotoxic, partial curve, poor fit]"
same,activation,[7]; [16],inconclusive: 13.7%
same,activation,[7]; at 76.8 µM (top of the series),inactive: 13.8%
same,Potency,[4],"inconclusive: 55.5 µM [cytotoxic, partial curve, poor fit]"
same,Potency,[8],"inconclusive: 77.7 µM [cytotoxic, partial curve, poor fit]"
same,Potency,[12],"inconclusive: 30.9 µM [activator] and inconclusive: 38.6 µM [activator, partial curve]"
same,Potency,[13],active: 25.4 µM and active: 17.8 µM
c1csc(-c2ccc(-c3cccs3)s2)c1,Potency,[1],inactive
same,Potency,[7]; [16],"inconclusive: 61.6 µM [activator, partial curve, poor fit]"
same,Potency,[3],active: 21.9 µM
same,Potency,[12],active: 1.72 µM
same,Potency,[5],inactive
N#CC(C#N)=NNc1cccc(Cl)c1,Potency,[1],active: 2.73 µM
same,Potency,[7]; [16],"inconclusive: 7.76 µM [cytotoxic, full curve]"
same,Potency,[3],inconclusive: 7.76 µM
same,Potency,[4],"inconclusive: 49 µM [cytotoxic, partial curve, poor fit]"
same,Potency,[14],active: 2.73 µM
same,activation,[12],inconclusive: -8.5% [phenotype inactive]
same,Potency,[13],active: 35.6 µM
CN(C)C(=S)S,Potency,[1],"inconclusive: 6.24 µM [cytotoxic, full curve] and inconclusive: 12.1 µM [cytotoxic, partial curve]"
same,Potency,[7]; [16],"inconclusive: 35.4 µM [falling, partial curve] and inconclusive: 21.9 µM [falling, partial curve]"
same,activation,[7]; [16],inconclusive: -16.7% [at 35.3 µM]
same,Potency,[4],"inconclusive: 8.88 µM [cytotoxic, full curve]"
same,Potency,[11],active: 19.7 µM and active: 6.81 µM and active: 27.3 µM
same,Potency,[15],active: 27.9 µM and active: 7.64 µM and active: 27.3 µM
C[C@@H]1O[C@@H](O[C@@H]2C=C3CC[C@@H]4[C@H](CC[C@]5(C)[C@@H](c6ccc(=O)oc6)CC[C@]45O)[C@@]3(C)CC2)[C@H](O)[C@H](O)[C@H]1O,Potency,[1],active: 21.1 µM
same,Potency,[6],"inconclusive: 0.0213 µM [cytotoxic, full curve]"
same,Potency,[3],"inconclusive: 0.0477 µM [rising, full curve]"
same,Potency,[4],"inconclusive: 0.0213 µM [cytotoxic, full curve]"
same,Potency,[14],"inconclusive: 29.8 µM [inhibitor, single point]"
same,Potency,[5],active: 0.0298 µM
same,Potency,[15],"inconclusive: 0.0841 µM [cytotoxic, full curve]"
O=P(OCC(Br)CBr)(OCC(Br)CBr)OCC(Br)CBr (stereo not given),Potency,[1],"inconclusive: 19.6 µM [cytotoxic, partial curve, poor fit]"
same,Potency,[7]; [16],"inconclusive: 62.5 µM [falling, single point]"
same,Potency,[4],"inconclusive: 14.7 µM [cytotoxic, partial curve, poor fit]"
same,Potency,[5],active: 49.2 µM and active: 51.7 µM
same,Potency,[11],"inconclusive: 69.5 µM [cytotoxic, single point] and inconclusive: 58 µM [cytotoxic, single point]"
same,Potency,[15],"inconclusive: 61.9 µM [cytotoxic] and inconclusive: 65.1 µM [cytotoxic, single point]"
CCC(C)c1ccc(O)cc1 (stereo not given),Potency,[1],"inconclusive: 68.6 µM [cytotoxic, partial curve, poor fit]"
same,Potency,[7]; [16],inconclusive: 55.4 µM
same,Potency,[13],"active: 71.6 µM and inconclusive: 63.3 µM [inhibitor, partial curve]"
CCCCCCCCCCCCCCCCn1cc[n+](C)c1,Potency,[1],"inconclusive: 88.2 µM [cytotoxic, partial curve, poor fit]"
same,Potency,[6],"inconclusive: 55.4 µM [cytotoxic, single point] and active: 21.9 µM"
same,Potency,[7]; [16],"inconclusive: 62.2 µM [cytotoxic, single point] and inconclusive: 21.9 µM [cytotoxic, single point]"
same,Potency,[3],"inconclusive: 35.4 µM [inhibitor, partial curve, poor fit] and inconclusive: 49.4 µM [cytotoxic] and inconclusive: 31 µM [cytotoxic]"
same,Potency,[8],inconclusive: 62.4 µM [cytotoxic] and active: 61.7 µM and active: 43.4 µM
same,Potency,[14],inactive and active: 27.6 µM and active: 13.7 µM
same,Potency,[12],"inconclusive: 17.6 µM [inhibitor, partial curve] and inconclusive: 30.9 µM [inhibitor, partial curve] and inconclusive: 17.3 µM [inhibitor, partial curve]"
same,Potency,[11],"inconclusive: 27.9 µM [cytotoxic, partial curve]"
same,Potency,[15],"inconclusive: 27.9 µM [cytotoxic, partial curve]"
Cc1nnc2n1-c1sc(CCc3ccc(CC(C)C)cc3)cc1C(c1ccccc1Cl)=NC2C (stereo not given),Potency,[1],inconclusive: 33.5 µM [cytotoxic]
same,Potency,[7]; [16],inconclusive: 26.8 µM [single point]
same,Potency,[3],"inconclusive: 30.1 µM [cytotoxic, single point]"
same,Potency,[8],"inconclusive: 33.5 µM [cytotoxic, single point]"
same,Potency,[12],inconclusive: 29.8 µM [inhibitor]
same,Potency,[11],"inconclusive: 29.8 µM [cytotoxic, single point]"
same,Potency,[15],"inconclusive: 26.6 µM [cytotoxic, partial curve]"
O=CC(Br)(Br)Br,Potency,[1],active: 7.67 µM
same,Potency,[6],"inconclusive: 38.8 µM [rising, partial curve, poor fit]"
same,Potency,[7]; [16],active: 7.74 µM
same,Potency,[3],"inconclusive: 61.4 µM [inhibitor, single point]"
same,Potency,[4],"inconclusive: 10.9 µM [cytotoxic, partial curve, poor fit]"
same,Potency,[8],"inconclusive: 24.3 µM [rising, partial curve]"
same,Potency,[12],"inconclusive: 76.7 µM [inhibitor, single point]"
same,Potency,[13],active: 17.8 µM
same,Potency,[11],active: 30.5 µM
same,Potency,[15],active: 27.2 µM
CO/N=C(/C1=NOCCO1)c1ccccc1Oc1ncnc(Oc2ccccc2Cl)c1F,Potency,[1],"inconclusive: 0.769 µM [cytotoxic, partial curve, poor fit]"
same,Potency,[2],active: 0.968 µM
same,Potency,[3],"inconclusive: 24.5 µM [rising, full curve, poor fit]"
same,Potency,[11],"inconclusive: 21.7 µM [cytotoxic, partial curve]"
same,Potency,[15],"inconclusive: 21.7 µM [cytotoxic, partial curve]"
NCCCNCCCN,Potency,[2],"inconclusive: 8.77 µM [inhibitor, partial curve, poor fit]"
same,Potency,[7]; [16],inactive
same,Potency,[3],inconclusive: 62.6 µM [inhibitor]
same,Potency,[4],inconclusive: 49.7 µM [cytotoxic]
O=[N+]([O-])c1ccc(F)c([N+](=O)[O-])c1,Potency,[1],active: 38.9 µM
same,Potency,[4],"inconclusive: 11.1 µM [cytotoxic, full curve]"
same,Potency,[12],inactive
same,Potency,[5],active: 34.7 µM
same,Potency,[11],active: 34.7 µM
same,Potency,[15],active: 34.7 µM
CCO/N=C(\CC)C1=C(O)CC(c2c(C)cc(C)cc2C)CC1=O (stereo not given),Potency,[1],"inconclusive: 54.5 µM [cytotoxic, partial curve, poor fit]"
same,Potency,[3],"inconclusive: 1.55 µM [activator, full curve]"
same,Potency,[4],"inconclusive: 1.95 µM [rising, partial curve, poor fit]"
same,Potency,[14],"inconclusive: 48.6 µM [inhibitor, partial curve, poor fit]"
O=[N+]([O-])c1ccccc1,Potency,[2],inactive
same,activation,[7]; [16],inconclusive: -4.45%
CC[C@H]1C[C@@H]2C[C@H]3c4[nH]c5ccc(OC)cc5c4CCN(C2)[C@@H]13,Potency,[2],inactive
same,Potency,[6],"inconclusive: 60.6 µM [cytotoxic, single point]"
same,Potency,[7]; [16],"inconclusive: 30.4 µM [falling, partial curve]"
same,Potency,[3],inconclusive: 21.5 µM
same,Potency,[4],"inconclusive: 24.1 µM [cytotoxic, partial curve]"
same,Potency,[12],"inconclusive: 30.1 µM [inhibitor, full curve]"
same,Potency,[5],"inconclusive: 67.4 µM [cytotoxic, single point]"
same,Potency,[15],"inconclusive: 53.5 µM [cytotoxic, partial curve]"
